Measurements: the supplement of paper PMC9446081
In all, about 39,000 compounds went through this assay and about 220 (0.56%) showed activity. The list shows a part of the results.

tested on: Escherichia coli K-12 BW25113; test: relative growth (OD600 normalised to plate interquartile mean) (fraction); higher = less growth inhibition, active = 0.2 or less; settings: 50 µM; LB; incubation time: overnight (16-24 h)
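Note: static incubation at 37 °C against the wild-type strain, values averaged over two biological replicates.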

Row | Structure (SMILES) | relative growth
1 | C[C@@H]1CCCCO[C@@H](CN(C)C(=O)C2CCCCC2)[C@H](C)CN([C@@H](C)CO)C(=O)c2cc(NC(=O)Cc3ccccc3)ccc2O1 | inactive: 0.999
2 | C[C@H](CO)N1C[C@H](C)[C@H](CN(C)Cc2ccc(C(F)(F)F)cc2)OCCCC[C@H](C)Oc2ccc(NS(=O)(=O)c3cn(C)cn3)cc2C1=O | inactive: 0.987
3 | COc1ccccc1C#Cc1ccc2c(c1)O[C@H](CN(C)Cc1cncnc1)[C@H](C)CN([C@@H](C)CO)S2(=O)=O | inactive: 1.01
4 | Cc1noc(C)c1NC(=O)Nc1ccc2c(c1)C(=O)N([C@H](C)CO)C[C@H](C)[C@@H](CN(C)C(=O)Nc1c(C)noc1C)OCCCC[C@H](C)O2 | inactive: 1
5 | C[C@@H]1CN([C@@H](C)CO)C(=O)c2cccc(NS(C)(=O)=O)c2O[C@@H]1CN(C)S(C)(=O)=O | inactive: 0.996
6 | c1cn(-c2ccc(-n3ccnc3)nn2)cn1 | inactive: 0.951
7 | C[C@H](CO)N1C[C@H](C)[C@@H](CN(C)C(=O)Nc2ccc(F)cc2)Oc2ncc(Br)cc2C1=O | inactive: 0.981
8 | Cc1[nH]c(=O)[nH]c(=O)c1S(=O)(=O)N1CCC(C(=O)N[C@H](C)c2ccccc2)CC1 | inactive: 0.991
9 | C[C@H](CO)N1C[C@H](C)[C@H](CN(C)C(=O)Nc2ccc3c(c2)OCO3)Oc2cc(C#Cc3cccnc3)ccc2S1(=O)=O | inactive: 0.991
10 | Cc1noc(C)c1NC(=O)Nc1cccc2c1O[C@@H](CN(C)Cc1ccc(C(F)(F)F)cc1)[C@@H](C)CN([C@H](C)CO)C2=O | inactive: 0.984
11 | C[C@@H]1CN([C@H](C)CO)S(=O)(=O)c2ccc(Br)cc2O[C@@H]1CN(C)Cc1ccc(C(=O)O)cc1 | inactive: 0.979
12 | COc1ccc(S(=O)(=O)N(C)C[C@@H]2OCCCC[C@@H](C)Oc3ccc(NS(=O)(=O)c4cn(C)cn4)cc3C(=O)N([C@H](C)CO)C[C@@H]2C)cc1 | inactive: 1.01
13 | C=C(CC)ON=c1[nH]c(=O)c2ncn([C@@H]3O[C@H]4CO[PH](O)(O)O[C@H]4[C@H]3OC(=O)CCC)c2[nH]1 | inactive: 0.99
14 | CC(C)N1C[C@H](C)[C@@H](CN(C)Cc2ccccc2Cl)Oc2c(NC(=O)c3ccncc3)cccc2C1=O | inactive: 1.04
15 | COCC#Cc1cnc2c(c1)C(=O)N([C@@H](C)CO)C[C@H](C)[C@@H](CN(C)S(=O)(=O)c1cccc(OC)c1)O2 | inactive: 1
16 | C[C@@H]1CCCCO[C@@H](CN(C)S(=O)(=O)c2ccc(F)cc2)[C@H](C)CN([C@H](C)CO)C(=O)c2cc(NC(=O)Nc3ccc(C(F)(F)F)cc3)ccc2O1 | inactive: 1.02
17 | C[C@@H]1CN([C@H](C)CO)C(=O)c2cc(NC(=O)c3ccncc3)ccc2O[C@@H]1CN(C)Cc1ccc(Oc2ccccc2)cc1 | inactive: 0.993
18 | C[C@H]1CN([C@@H](C)CO)C(=O)c2cc(NS(C)(=O)=O)ccc2O[C@@H]1CN(C)C(=O)Nc1ccc2c(c1)OCO2 | inactive: 0.982
19 | CCOC(=O)Cc1c(C)[nH]c(SC)nc1=O | inactive: 0.99
20 | COCCOC(=O)N1C(=O)[C@@]2(c3cc(C#CC4=CCCCC4)ccc31)[C@H](C(=O)N1CCc3cc(OC)c(OC)cc3C1)[C@H]1C(=O)O[C@H](c3ccccc3)[C@H](c3ccccc3)N1[C@@H]2c1ccccc1OCCO | inactive: 1.08
21 | C[C@H](O)c1nc(=O)c2ccccc2[nH]1 | inactive: 0.997

Row | Structure (SMILES) | relative growth
22 | C[C@@H]1CN([C@@H](C)CO)C(=O)c2cc(NS(=O)(=O)c3cn(C)cn3)ccc2O[C@H]1CN(C)CC1CCCCC1 | inactive: 1.02
23 | COCC#Cc1cnc2c(c1)C(=O)N([C@H](C)CO)C[C@H](C)[C@@H](CN(C)C(=O)c1ccc3c(c1)OCO3)O2 | inactive: 0.993
24 | CC(C)[C@@H](N)C(=O)O | inactive: 0.997
25 | C[C@H](CO)N1C[C@H](C)[C@@H](CN(C)C(=O)CCCN(C)C)OCCCC[C@H](C)Oc2ccc(N(C)C)cc2C1=O | inactive: 1.01
26 | C[C@H](CO)N1C[C@H](C)[C@@H](CN(C)C(=O)c2ccncc2)Oc2cc(-c3cccc(C#N)c3)ccc2S1(=O)=O | inactive: 1.01
27 | C[C@H]1CCCCO[C@@H](CN(C)C(=O)c2ccccc2)[C@@H](C)CN([C@@H](C)CO)C(=O)c2cc(NC(=O)NC3CCCCC3)ccc2O1 | inactive: 0.951
28 | C[C@H](CO)N1C[C@H](C)[C@H](CN(C)C(=O)Nc2cccc3ccccc23)Oc2c(NC(=O)Nc3ccc(F)cc3)cccc2C1=O | inactive: 0.968
29 | C[C@@H]1CCCCO[C@H](CN(C)C(=O)Nc2ccc(F)cc2)[C@H](C)CN([C@@H](C)CO)C(=O)c2cc(NC(=O)Cc3ccccc3)ccc2O1 | inactive: 0.99
30 | C[C@@H]1CN([C@H](C)CO)C(=O)Cc2cc(NC(=O)Nc3ccc(F)cc3)ccc2O[C@@H]1CN(C)CC1CCCCC1 | inactive: 0.997
31 | C[C@H]1CN([C@@H](C)CO)C(=O)c2cccc(NS(=O)(=O)c3cccs3)c2O[C@@H]1CN(C)S(=O)(=O)c1ccc(F)cc1 | inactive: 1.02
32 | COc1ccc(NC(=O)N(C)C[C@@H]2Oc3ncc(C#CCN(C)C)cc3C(=O)N([C@H](C)CO)C[C@@H]2C)cc1 | inactive: 1.01
33 | Cc1ccc(S(=O)(=O)N(C)C[C@@H]2OCCCC[C@@H](C)Oc3ccc(NC(=O)Nc4cccc5ccccc45)cc3C(=O)N([C@@H](C)CO)C[C@H]2C)cc1 | inactive: 1.03
34 | COc1ccc(S(=O)(=O)N(C)C[C@H]2OCCCC[C@H](C)Oc3ccc(NC(=O)NC4CCCCC4)cc3C(=O)N([C@H](C)CO)C[C@@H]2C)cc1 | inactive: 1.03
35 | COc1ccc(NC(=O)Nc2cccc3c2O[C@@H](CN(C)S(=O)(=O)c2cn(C)cn2)[C@H](C)CN([C@@H](C)CO)C3=O)cc1 | inactive: 0.987
36 | COc1ccc(C[C@@H]2c3cc(OC)c(OC)cc3CC[N@+]2(C)CCC(=O)OCCCCCOC(=O)CC[N@@+]2(C)CCc3cc(OC)c(OC)cc3[C@H]2Cc2ccc(OC)c(OC)c2)cc1OC | inactive: 0.908
37 | c1ccc(-c2cccs2)nc1 | inactive: 1.01
38 | N#CCC(=O)N1CCSCC1 | inactive: 1.02
39 | C[C@@H]1CN([C@@H](C)CO)C(=O)c2cccc(NC(=O)Nc3ccc4c(c3)OCO4)c2O[C@H]1CN(C)S(C)(=O)=O | inactive: 1.01
40 | C[C@@H]1CN([C@@H](C)CO)C(=O)c2cccc(NC(=O)c3cnccn3)c2O[C@@H]1CN(C)C(=O)Nc1ccc(F)cc1 | inactive: 0.954
41 | Cc1cc(-c2ccc3ccccc3n2)nc2ccc3ccccc3c12 | inactive: 1.02
42 | C[C@H](CO)N1C[C@H](C)[C@@H](CN(C)C(=O)Nc2ccccc2)Oc2c(NC(=O)Nc3cccc4ccccc34)cccc2C1=O | inactive: 1.07

Row | Structure (SMILES) | relative growth
43 | NCc1cccc(-c2ccccc2)c1 | inactive: 0.973
44 | C[C@H]1CN([C@@H](C)CO)C(=O)c2cccc(NC(=O)c3cnccn3)c2O[C@H]1CN(C)CC1CCCCC1 | inactive: 0.995
45 | C[C@H](CO)N1C[C@H](C)[C@H](CN(C)S(=O)(=O)c2ccc3c(c2)OCCCO3)OCc2cn(nn2)CCCC1=O | inactive: 1.03
46 | CS(=O)(=O)N(CCC#N)Cc1ccco1 | inactive: 1
47 | C[C@@H]1CCCCO[C@@H](CN(C)CC2CCCCC2)[C@@H](C)CN([C@@H](C)CO)C(=O)c2cc(N(C)C)ccc2O1 | inactive: 1
48 | CO[C@@H]1CN(C)C(=O)c2ccc(NC(=O)Nc3ccccc3F)cc2OC[C@@H](C)N(CCC(F)(F)F)C[C@H]1C | inactive: 1.02
49 | C[C@@H]1CN([C@H](C)CO)C(=O)c2cc(NS(=O)(=O)c3ccccc3)ccc2O[C@@H](C)CCCCO[C@@H]1CN(C)C(=O)c1ccccc1 | inactive: 1
50 | C[C@H]1CN([C@@H](C)CO)S(=O)(=O)c2ccc(/C=C/c3ccccc3)cc2O[C@H]1CN(C)C(=O)CN1CCOCC1 | inactive: 1.04
51 | Cc1noc(C)c1NC(=O)Nc1ccc2c(c1)C(=O)N([C@@H](C)CO)C[C@H](C)[C@H](CN(C)CC1CCCCC1)OCCCC[C@H](C)O2 | inactive: 0.983
52 | C[C@@H]1CN([C@@H](C)CO)C(=O)Cc2cc(NS(=O)(=O)c3cccs3)ccc2O[C@H]1CN(C)S(=O)(=O)c1cn(C)cn1 | inactive: 1.02
53 | CCOc1cc2ncc(C#N)c(Nc3ccc(OCc4ccccn4)c(Cl)c3)c2cc1NC(=O)/C=C/CN(C)C | inactive: 1.01
54 | CC(C)NC(=O)Nc1ccc2c(c1)C(=O)N([C@H](C)CO)C[C@H](C)[C@@H](CN(C)C(=O)C1CCCCC1)OCCCC[C@H](C)O2 | inactive: 0.999
55 | Cc1noc(C)c1S(=O)(=O)Nc1ccc2c(c1)CC(=O)N([C@H](C)CO)C[C@@H](C)[C@H](CN(C)S(=O)(=O)c1ccc(Cl)cc1)O2 | inactive: 1
56 | COc1ccc(S(=O)(=O)Nc2ccc3c(c2)CC(=O)N([C@@H](C)CO)C[C@H](C)[C@H](CN(C)S(=O)(=O)c2ccc(F)cc2)O3)cc1 | inactive: 0.998
57 | NCc1ccnc(N2CCCC2)c1 | inactive: 1.01
58 | C[C@H]1CN([C@@H](C)CO)C(=O)c2cc(NC(=O)Nc3ccc(C(F)(F)F)cc3)ccc2O[C@@H]1CN(C)Cc1ccc(Oc2ccccc2)cc1 | inactive: 0.987
59 | COCCOC(=O)N1C(=O)[C@@]2(c3cc(C#Cc4ccc(OC)cc4)ccc31)[C@H](C(=O)N1CCCCCCC1)[C@H]1C(=O)O[C@H](c3ccccc3)[C@H](c3ccccc3)N1[C@@H]2c1ccc(OCCO)cc1 | inactive: 1.07
60 | O=C(O)CC[C@H]1CCC(=O)N1 | inactive: 0.924
61 | CN1CCN(C(=O)C[C@H]2C=C[C@@H](NC(=O)c3ccc4c(c3)OCO4)[C@@H](CO)O2)CC1 | inactive: 0.955
